According to publication PMC7819943, “Rice protein-binding microarrays: a tool to detect cis-acting elements near promoter regions in rice”:
The list shows a part of the results.

target: T1, OsWOX13 (Oryza sativa, UniProt Q5QMM3 1-267); experiment: protein-binding microarray (RPBM); PBS, 2% BSA, 51.3 ng/ul salmon testes DNA, 50 uM zinc acetate, 200 nM TF, 25 C, 1 h; high values mean tight binding; details: protein: recombinant; tags: N-terminal polyhistidine and DsRed monomer fusion (pET32a); label: CyDye5-dUTP incorporated in the synthesized complementary strand; 3' TTTTT single-stranded linker to array surface; dsDNA, one strand shown
T1 sequence: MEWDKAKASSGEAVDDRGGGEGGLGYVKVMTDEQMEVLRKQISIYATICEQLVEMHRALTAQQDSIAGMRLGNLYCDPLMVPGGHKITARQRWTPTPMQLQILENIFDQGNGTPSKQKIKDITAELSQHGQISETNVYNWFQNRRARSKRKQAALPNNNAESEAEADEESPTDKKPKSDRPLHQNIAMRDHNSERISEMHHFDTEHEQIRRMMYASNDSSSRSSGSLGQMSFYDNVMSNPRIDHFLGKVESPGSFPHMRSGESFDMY
Summary of the method: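 Binding signal is defined as the fluorescence intensity of each feature in arbitrary units, read on an Axon 4000B scanner. Transcription factors with N-terminal polyhistidine and DsRed fusions came from E. coli BL21-CodonPlus and were purified on Ni–NTA. They were incubated at 200 nM for 1 h at 25 °C on a custom Agilent array that had been made double-stranded with Cy5-dUTP, with 50 µM zinc acetate present, and the array was washed.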

Sequence	binding signal
AGCTAGAATTTGATTAGTCCTTCAGACAGCCAGGATCAGTCGGAGTCACCTAGTGCAG	8390 fluorescence intensity (a.u.)
GAAATGACATTTCAATTCATCTATTTATTAGCGGGAGTTGCGGAGTCACCTAGTGCAG	5540 fluorescence intensity (a.u.)
GGTGTAAATATAAATTTGTACGTTGACATAAAAGAGAAAACGGAGTCACCTAGTGCAG	6640 fluorescence intensity (a.u.)
GCTAATTAAGTAGTTTAGTGCTTTAACCATGAATAAACTACGGAGTCACCTAGTGCAG	4920 fluorescence intensity (a.u.)
CTGAGATGATTTTGTTCATGCATGAAGTCCTTTCTGAAGTCGGAGTCACCTAGTGCAG	9590 fluorescence intensity (a.u.)
TAAACTTAATTTTAAAATCATAATTCAGAAATGTGGTGAACGGAGTCACCTAGTGCAG	30500 fluorescence intensity (a.u.)
TCTCACTGATTGAGCATCAGAGATTCGTTTGTTACCCAGTCGGAGTCACCTAGTGCAG	37000 fluorescence intensity (a.u.)
GGAGTGATTAAATTAGTTAATTAGTTAATAATCCCATTGACGGAGTCACCTAGTGCAG	56800 fluorescence intensity (a.u.)
AGTTTAAATTATGGCAACAACTATAATAATCGAAGAGACACGGAGTCACCTAGTGCAG	4170 fluorescence intensity (a.u.)
GTTAATGACAGCATACCCATTCTTATTCGTTGTTATAATTCGGAGTCACCTAGTGCAG	6000 fluorescence intensity (a.u.)
CTATGCAAACTGTGCCAGATTGGTTTGTTCATTATGGGCCCGGAGTCACCTAGTGCAG	3840 fluorescence intensity (a.u.)
GTACAATAATTAAAACTTAATTAATTGGCTTTCTCGTTTTCGGAGTCACCTAGTGCAG	32300 fluorescence intensity (a.u.)
TGCGGATTGGTGGTGTGGGTTTGGACAGGGAATCGCGGGCCGGAGTCACCTAGTGCAG	3550 fluorescence intensity (a.u.)
TGAACTTAACATGATTGATGACTTATTTGGATGATTCACACGGAGTCACCTAGTGCAG	42800 fluorescence intensity (a.u.)
CTGTTTTCTTTTGACTGTTTTGATTAGCATTATATCAGATCGGAGTCACCTAGTGCAG	11700 fluorescence intensity (a.u.)
ATGATTGTACTACTACTACCTGAATCTTGGAGTAGAGTTACGGAGTCACCTAGTGCAG	10700 fluorescence intensity (a.u.)
TCATAATTGACTTTAAACTGCTAAATAGAATAGGTATTTCCGGAGTCACCTAGTGCAG	35600 fluorescence intensity (a.u.)
CTATAATTAAGGATATACATCATGTACTAACCTGACTAAACGGAGTCACCTAGTGCAG	21400 fluorescence intensity (a.u.)
GATCTAATTTGAAATGTGATAAATTGTTTTCAATAAATGGCGGAGTCACCTAGTGCAG	27700 fluorescence intensity (a.u.)
AATAATTAGGCTGTGTTTAGTTCAGCGCAAAGTTTGGATTCGGAGTCACCTAGTGCAG	18800 fluorescence intensity (a.u.)
ATCTATAGTCAATTTAATATCCAATTCATACAATAGTTACCGGAGTCACCTAGTGCAG	3690 fluorescence intensity (a.u.)

Sequence	binding signal
CTCTTAAATTACTTATCCAAATCATGATCTGATTGCACCACGGAGTCACCTAGTGCAG	21100 fluorescence intensity (a.u.)
TAAAATGACAGATTGACAGTGATGGTTAAGTCACCATCGACGGAGTCACCTAGTGCAG	46400 fluorescence intensity (a.u.)
GCATCATGATTCCGATAATTGCATTCAGTGTAGTAGTATCCGGAGTCACCTAGTGCAG	22300 fluorescence intensity (a.u.)
AGTAATTATTAGCATAATTATTTGTCTCCATTTCTTTCCTCGGAGTCACCTAGTGCAG	47400 fluorescence intensity (a.u.)
AATCTGACTGGTACACCATAAACAGTTAATGCGTAATAATCGGAGTCACCTAGTGCAG	7590 fluorescence intensity (a.u.)
CGTTGATAAAATGTAATCTCCCTTTACACCAGGTTTATACCGGAGTCACCTAGTGCAG	5720 fluorescence intensity (a.u.)
AAAAGGAATTGAAATTTGAATGGTTGAGACCCGGCTTTACCGGAGTCACCTAGTGCAG	5850 fluorescence intensity (a.u.)
GTAAATTAGTACACGGCAATGTAGTATAAGTTGTAATAGGCGGAGTCACCTAGTGCAG	21500 fluorescence intensity (a.u.)
ACGGCTCCTACTCCAATCAATCACAACCAACGAATTAGAACGGAGTCACCTAGTGCAG	11800 fluorescence intensity (a.u.)
AGGCTCCAATCAATTGCCGGCAGCAAGCCACCATGCCCCACGGAGTCACCTAGTGCAG	10100 fluorescence intensity (a.u.)
CTTGATTGTATTTTAAACTTATTAGTGTGAATTTCGTTAACGGAGTCACCTAGTGCAG	14600 fluorescence intensity (a.u.)
CGCGGAAACAATCATGTTCTATTATGCAGAGTAAAGACTTCGGAGTCACCTAGTGCAG	7280 fluorescence intensity (a.u.)
CCTTAACGGGCTTTATTGCTGCTGAGATGAAATCATTGGCCGGAGTCACCTAGTGCAG	5450 fluorescence intensity (a.u.)
TTAAATTTAATGCTACTTATCTCACATGATGTCTTGGATACGGAGTCACCTAGTGCAG	9870 fluorescence intensity (a.u.)
GATTTGATAGGAGGATCGGTCCTAGCATCATACTACACGGCGGAGTCACCTAGTGCAG	7100 fluorescence intensity (a.u.)
TAAACTAATAACAAAATAAATTATAGATTCCACCTGTAAACGGAGTCACCTAGTGCAG	5400 fluorescence intensity (a.u.)
TTTAAATTTGAATTCAAATATTTTCTATATATAGTATTTCCGGAGTCACCTAGTGCAG	10900 fluorescence intensity (a.u.)
ATAGATAGATAGATAATAGATAGATAGAAGATAGATAGATCGGAGTCACCTAGTGCAG	44600 fluorescence intensity (a.u.)
GGAGACTCAATTAACGGCTAATTAAAACGACAAAAGCATTCGGAGTCACCTAGTGCAG	35000 fluorescence intensity (a.u.)
ACCAAATCGCCGCGGTTGACTAATTACTTGATTTAGCCGCCGGAGTCACCTAGTGCAG	4170 fluorescence intensity (a.u.)
CAAATTAAAACATTTACAGCTTACATGACTAGCTACTGCTCGGAGTCACCTAGTGCAG	6790 fluorescence intensity (a.u.)
